# PubChem BioAssay (EPA / NIEHS)
# Records with an inconclusive call do not appear. Rule for the calls: active = hit-call score of the fitted dose curve at least 0.9, where 1 is the maximum; inconclusive = response in the unintended direction; inactive = score below 0.9. For part of its entries the source gives two or more results. The list is limited to them. The source may hold further records. The records of an entry repeat one measurement across runs, samples, wells, individuals or studies.
# Biological target: human Protein Tyrosine Phosphatase Receptor Type C (PTPRC), PTPRC (gene 5788) (UniProt P08575)
# Chain of UniProt P08575 (P08575 whole entry, looked up): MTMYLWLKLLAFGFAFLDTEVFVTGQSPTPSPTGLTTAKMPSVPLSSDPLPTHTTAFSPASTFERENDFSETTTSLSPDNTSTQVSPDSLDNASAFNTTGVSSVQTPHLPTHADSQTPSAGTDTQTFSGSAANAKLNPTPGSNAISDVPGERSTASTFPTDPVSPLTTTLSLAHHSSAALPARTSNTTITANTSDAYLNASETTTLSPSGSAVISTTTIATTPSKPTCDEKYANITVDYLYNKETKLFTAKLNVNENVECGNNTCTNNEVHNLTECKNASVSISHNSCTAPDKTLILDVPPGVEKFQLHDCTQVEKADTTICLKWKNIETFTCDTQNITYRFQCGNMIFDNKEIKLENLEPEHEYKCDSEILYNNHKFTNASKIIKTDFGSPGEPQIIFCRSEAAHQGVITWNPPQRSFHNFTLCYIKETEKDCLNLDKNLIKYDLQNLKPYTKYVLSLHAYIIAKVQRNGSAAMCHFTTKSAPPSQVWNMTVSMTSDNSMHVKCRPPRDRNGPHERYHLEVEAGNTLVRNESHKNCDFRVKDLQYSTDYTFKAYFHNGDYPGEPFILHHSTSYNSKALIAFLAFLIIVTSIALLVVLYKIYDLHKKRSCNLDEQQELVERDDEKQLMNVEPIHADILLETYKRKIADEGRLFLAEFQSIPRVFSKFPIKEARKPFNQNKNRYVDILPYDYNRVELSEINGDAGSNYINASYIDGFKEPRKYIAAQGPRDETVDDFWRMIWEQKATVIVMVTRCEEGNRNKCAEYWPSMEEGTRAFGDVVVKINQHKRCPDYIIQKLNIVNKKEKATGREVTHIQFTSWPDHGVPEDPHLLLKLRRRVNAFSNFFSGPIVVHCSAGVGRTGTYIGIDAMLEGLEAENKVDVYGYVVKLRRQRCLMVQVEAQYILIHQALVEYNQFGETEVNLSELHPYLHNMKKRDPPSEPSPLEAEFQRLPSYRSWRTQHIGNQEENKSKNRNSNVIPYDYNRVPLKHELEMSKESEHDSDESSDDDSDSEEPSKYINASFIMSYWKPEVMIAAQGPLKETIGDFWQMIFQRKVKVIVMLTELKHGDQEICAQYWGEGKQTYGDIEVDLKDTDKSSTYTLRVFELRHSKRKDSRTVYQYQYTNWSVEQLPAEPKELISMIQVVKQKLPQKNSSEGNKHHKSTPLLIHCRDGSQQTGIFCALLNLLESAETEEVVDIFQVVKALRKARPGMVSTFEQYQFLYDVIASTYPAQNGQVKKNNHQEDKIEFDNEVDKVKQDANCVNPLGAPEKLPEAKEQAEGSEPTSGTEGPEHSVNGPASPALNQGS
# Assay: NVS_ENZ_hPTPRC: NovaScreen (NVS) Enzymatic Assay for human Protein Tyrosine Phosphatase Receptor Type C (PTPRC) (AID 2283212)
# Method: NVS_ENZ_hPTPRC is a biochemical, single-readout assay that uses extracted gene-proteins from yeast cells in a cell-free assay. Measurements were taken 1 hour after chemical dosing in a 96-well plate.NVS_ENZ_hPTPRC is one of one assay component(s) measured or calculated from the NVS_ENZ_hPTPRC assay. It is designed to make measurements of enzyme activity, a form of enzyme reporter, as detected with absorbance signals by Colorimetric technology.Data from the assay component NVS_ENZ_hPTPRC was analyzed into 1 assay endpoint. This assay endpoint, NVS_ENZ_hPTPRC, was analyzed in the positive analysis fitting direction relative to DMSO as the negative control and baseline of activity. […] Furthermore, this assay endpoint can be referred to as a primary readout, because this assay has produced multiple assay endpoints where this one serves a enzymatic activity function. […]
# Binding assays used specific radioligands (tritiated, iodinated) with non-radioactive competitive displacement ligands in agonist or antagonist protocols (as indicated) and various reference compounds and inhibitors to titrate specific binding to receptors and transporters. Most enzyme assays (CYPs, kinases, phosphatases, proteases, HDACs) used recombinant protein and specific substrates (fluorescence mostly, some colorimetric and radioactive) and inhibitors, followed by a biochemical separation of substrate and product. […]
smiles,measurement,value
S=C(S)NCCNC(=S)S.[Mn+2].[S-]C([S-])=NCCN=C([S-])[S-].[Zn+2],AC50,"active: 905 nM, 1.29 µM, 17.1 µM, 263 nM, 293 nM, 1.82 µM [separate samples]"
